# Assay results: the supplement of paper PMC10037445
# “And” between values parts separate entries of the source, which are not always exact repeats. Identical values can stand only once. Whole data set: some 2,900 compounds, median “IRF Lucia reporter activity, fold change vs agonist alone” near 0.9, cut for the highest 2% near 2.8. Some of the results follow.
# Experiments:
# RAW-Dual [1] = test: IRF Lucia reporter activity, fold change vs agonist alone; cytotoxicity flag (confluency mask): not cytotoxic; higher = enhanced IRF activity
# Procedure, shortened: (§1)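 Library stock was pin-tooled at 50 nL into 384-well plates of RAW-Dual macrophages (50,000 cells/well, DMEM), followed 1 h later by a PRR agonist, and the cells were kept at 37 °C, 5% CO2. Supernatant collected after 20 hours was read for IRF by QuantiLuc luminescence and for NF-κB by QuantiBlue absorbance at 620 nm. Reporter activity is fold change over agonist-alone wells, and a well counted as cytotoxic when its IncuCyte confluency was below 70% of agonist controls in both mask sets.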
# RAW-Dual [2] = test: IRF Lucia reporter activity, fold change vs agonist alone; higher = enhanced IRF activity; conditions: library stock concentration (final ~1000-fold dilution): 10 mM, agonist: MPLA (TLR4) […]
# Procedure, shortened: as §1
# RAW-Dual [3] = test: IRF Lucia reporter activity, fold change vs agonist alone; cytotoxicity flag (confluency mask): cytotoxic (confluency <70% of control); higher = enhanced IRF activity
# Procedure, shortened: as §1
# [4] = agonist: 3'3'-cGAMP (STING) 10 ug/mL
# [5] = cytotoxicity flag (confluency mask): not cytotoxic
compound,measurement,setting,value
NC(=O)NO (library stock concentration (final ~1000-fold dilution): 10 mM),IRF Lucia reporter activity,RAW-Dual [1]; [4],0.994
same,IRF Lucia reporter activity,RAW-Dual [1]; agonist: LPS (TLR4) 0.1 ug/mL,0.724
NC(=O)NO,IRF Lucia reporter activity,RAW-Dual [2]; [5],0.982
CC12CC3(O)OC(O1)C1(COC(=O)c4ccccc4)C3CC21OC1OC(COC(=O)c2ccccc2)C(O)C(O)C1O (centres undefined) (library stock concentration (final ~1000-fold dilution): 10 mM),IRF Lucia reporter activity,RAW-Dual [1]; [4],0.883
same,IRF Lucia reporter activity,RAW-Dual [1]; agonist: LPS (TLR4) 0.1 ug/mL,1.19
Cl.Cl.O=C1c2c(O)ccc(O)c2C(=O)c2c(NCCNCCO)ccc(NCCNCCO)c21 (library stock concentration (final ~1000-fold dilution): 10 mM),IRF Lucia reporter activity,RAW-Dual [1]; [4],1.01
same,IRF Lucia reporter activity,RAW-Dual [1]; agonist: LPS (TLR4) 0.1 ug/mL,0.014
Cl.Cl.O=C1c2c(O)ccc(O)c2C(=O)c2c(NCCNCCO)ccc(NCCNCCO)c21,IRF Lucia reporter activity,RAW-Dual [2]; [5],1.09
O=C(Nc1ccccc1C(=O)O)c1cc(S(=O)(=O)c2ccccc2)ccc1Cl (library stock concentration (final ~1000-fold dilution): 10 mM),IRF Lucia reporter activity,RAW-Dual [1]; [4],0.783
same,IRF Lucia reporter activity,RAW-Dual [1]; agonist: LPS (TLR4) 0.1 ug/mL,0.751
COCCc1ccc(OCC(O)CNC(C)C)cc1.COCCc1ccc(OCC(O)CNC(C)C)cc1.O=C(O)C(O)C(O)C(=O)O (centres undefined) (library stock concentration (final ~1000-fold dilution): 10 mM),IRF Lucia reporter activity,RAW-Dual [1]; [4],1.05
same,IRF Lucia reporter activity,RAW-Dual [1]; agonist: LPS (TLR4) 0.1 ug/mL,0.944
COCCc1ccc(OCC(O)CNC(C)C)cc1.COCCc1ccc(OCC(O)CNC(C)C)cc1.O=C(O)C(O)C(O)C(=O)O (centres undefined),IRF Lucia reporter activity,RAW-Dual [2]; [5],0.694
Cc1c(C)c2c(c(C)c1O)CC[C@@](C)(CCC[C@H](C)CCC[C@H](C)CCCC(C)C)O2 (library stock concentration (final ~1000-fold dilution): 10 mM),IRF Lucia reporter activity,RAW-Dual [1]; [4],0.0149
same,IRF Lucia reporter activity,RAW-Dual [1]; agonist: LPS (TLR4) 0.1 ug/mL,0.0182
COc1cc2c(cc1OC)CN(CCc1ccc(NC(=O)c3cccc4c(=O)c5cccc(OC)c5[nH]c34)cc1)CC2 (library stock concentration (final ~1000-fold dilution): 10 mM),IRF Lucia reporter activity,RAW-Dual [1]; [4],1.04
same,IRF Lucia reporter activity,RAW-Dual [1]; agonist: LPS (TLR4) 0.1 ug/mL,1.42
C=C(C)C1CC=C(C)CC1 (centres undefined) (library stock concentration (final ~1000-fold dilution): 10 mM),IRF Lucia reporter activity,RAW-Dual [1]; [4],0.703
same,IRF Lucia reporter activity,RAW-Dual [1]; agonist: LPS (TLR4) 0.1 ug/mL,0.701
CC(C)(O)CNc1ncc(-c2ccnc(Nc3ccncc3)n2)c(CC2CC2)n1 (library stock concentration (final ~1000-fold dilution): 10 mM),IRF Lucia reporter activity,RAW-Dual [1]; [4],0.364
same,IRF Lucia reporter activity,RAW-Dual [1]; agonist: LPS (TLR4) 0.1 ug/mL,10.3
CN(C)CCC=C1c2ccccc2C(C)(C)c2ccccc21.Cl,IRF Lucia reporter activity,RAW-Dual [2]; cytotoxicity flag (confluency mask): cytotoxic (confluency <70% of control),1.88
CN(C)CCC=C1c2ccccc2C(C)(C)c2ccccc21.Cl (library stock concentration (final ~1000-fold dilution): 10 mM),IRF Lucia reporter activity,RAW-Dual [3]; [4],0.653
same,IRF Lucia reporter activity,RAW-Dual [3]; agonist: LPS (TLR4) 0.1 ug/mL,1.37
CC(C)(C)C(O)/C=C/c1ccc2c(c1)OCO2 (centres undefined) (library stock concentration (final ~1000-fold dilution): 10 mM),IRF Lucia reporter activity,RAW-Dual [1]; [4],1.1
same,IRF Lucia reporter activity,RAW-Dual [1]; agonist: LPS (TLR4) 0.1 ug/mL,1.43
CC(C)(C)C(O)/C=C/c1ccc2c(c1)OCO2 (centres undefined),IRF Lucia reporter activity,RAW-Dual [2]; [5],1.26
Nc1nc(F)nc2c1ncn2C1OC(COP(=O)(O)O)C(O)C1O (centres undefined),IRF Lucia reporter activity,RAW-Dual [2]; [5],1.03
Nc1nc(F)nc2c1ncn2C1OC(COP(=O)(O)O)C(O)C1O (centres undefined) (library stock concentration (final ~1000-fold dilution): 10 mM),IRF Lucia reporter activity,RAW-Dual [1]; [4],1
same,IRF Lucia reporter activity,RAW-Dual [1]; agonist: LPS (TLR4) 0.1 ug/mL,1.24
O=C(Nc1ccc2c(O)cc(S(=O)(=O)O)cc2c1)Nc1ccc2c(O)cc(S(=O)(=O)O)cc2c1 (library stock concentration (final ~1000-fold dilution): 10 mM),IRF Lucia reporter activity,RAW-Dual [1]; [4],0.902 and 0.943
same,IRF Lucia reporter activity,RAW-Dual [1]; agonist: LPS (TLR4) 0.1 ug/mL,1.19 and 1.01
O=C(Nc1ccc2c(O)cc(S(=O)(=O)O)cc2c1)Nc1ccc2c(O)cc(S(=O)(=O)O)cc2c1,IRF Lucia reporter activity,RAW-Dual [2]; [5],1.01
Cn1cnc(N)c2ncnc1-2 (library stock concentration (final ~1000-fold dilution): 10 mM),IRF Lucia reporter activity,RAW-Dual [1]; [4],1.01
same,IRF Lucia reporter activity,RAW-Dual [1]; agonist: LPS (TLR4) 0.1 ug/mL,0.983
Cn1cnc(N)c2ncnc1-2,IRF Lucia reporter activity,RAW-Dual [2]; [5],1.12
O=C(O)c1cc(O)c(O)c(O)c1,IRF Lucia reporter activity,RAW-Dual [2]; [5],1.07
O=C(O)c1cc(O)c(O)c(O)c1 (library stock concentration (final ~1000-fold dilution): 10 mM),IRF Lucia reporter activity,RAW-Dual [1]; [4],1.09 and 0.635
same,IRF Lucia reporter activity,RAW-Dual [1]; agonist: LPS (TLR4) 0.1 ug/mL,1.24 and 0.448
CC1OC(OC2C(O)CC(OC3C(O)CC(OC4CCC5(C)C(CCC6C5CC(O)C5(C)C(C7=CC(=O)OC7)CCC65O)C4)OC3C)OC2C)CC(O)C1O (centres undefined) (library stock concentration (final ~1000-fold dilution): 10 mM),IRF Lucia reporter activity,RAW-Dual [1]; [4],0.876
same,IRF Lucia reporter activity,RAW-Dual [1]; agonist: LPS (TLR4) 0.1 ug/mL,0.86
CC1OC(OC2C(O)CC(OC3C(O)CC(OC4CCC5(C)C(CCC6C5CC(O)C5(C)C(C7=CC(=O)OC7)CCC65O)C4)OC3C)OC2C)CC(O)C1O (centres undefined),IRF Lucia reporter activity,RAW-Dual [2]; [5],0.709
C=C(C)C1CCC2(C(=O)O)CCC3(C)C(CCC4C5(C)CCC(OC(=O)CC(C)(C)C(=O)O)C(C)(C)C5CCC43C)C12 (centres undefined) (library stock concentration (final ~1000-fold dilution): 10 mM),IRF Lucia reporter activity,RAW-Dual [3]; [4],1.18
same,IRF Lucia reporter activity,RAW-Dual [3]; agonist: LPS (TLR4) 0.1 ug/mL,0.86
